{"source": "paper PMC12136788", "binders": {"B1": {"name": "chr5:93602159:93602160:+_ENSMUSG00000058013_ENSMUST00000074733|mus_mus|motif|central (ssRNA)", "RNA": "GGGAGUUCUACAGUCCGACGAUCGCAUGUCUUUAAAAGCUUUUAGGGAUGAGAGAAAUUGAAUGCAAAGGGGUGUUUUCGGUUCCAAGGCACAUACACACACACAAAAUAAAGCUCACACAAGCAGUGGCCGGAACAAGCAGACAACAGAGGAUUGAGCAUCA"}, "B2": {"name": "55315182_55315302_772_3pUTR_ENSMUSG00000021488_ENSMUST00000099490|mouse|control|control (ssRNA)", "RNA": "GGGAGUUCUACAGUCCGACGAUCGUUUAUUUUUCUGUUUUUCAGUUUGAGGAGCUAACGGCAAGAAUGGCCGUUCCACUGCACCAUGUCUACUCUCUGGCAUGCUGUCUUGUUCACUUCCCAUGGCCACUUCUACACCAUUCUCAACAGAGGAUUGAGCAUCA"}, "B3": {"name": "89285464_89287241_2550_3pUTR_ENSMUSG00000030084_ENSMUST00000163139|mouse|control|control (ssRNA)", "RNA": "GGGAGUUCUACAGUCCGACGAUCACAUCAUUCCCCUCAUAGGAGUACGAGGAGUUCUGGCACUGCAGGCUGGAGCUGUUGAAGCGCAGUGCAGUGACUCGGGCCGGGCUGCCUGGGAUGUGGAAAAGGCACUCGUACCCUCGCCAACAGAGGAUUGAGCAUCA"}, "B4": {"name": "chr5:145543945:145543946:-_ENSG00000133706_ENST00000545646|hu_hu|hu_hu_hu_mus_True|8_98 (ssRNA)", "RNA": "GGGAGUUCUACAGUCCGACGAUCCUGAACGGCCAGUGGCGGGAAAUAAUCAAGCCAGUGCUCUGCUUCAGAAAACUUCACUAUGUCGUCAUCAGAGAGCCCAAGGGAUUUCAUAAUGUCCCACUGGUAUUUAGAAGAUCCUGCCAACAGAGGAUUGAGCAUCA"}, "B5": {"name": "chr6:109690081:109690082:-_ENSG00000135535_ENST00000310786|hu_mus|FALSE|FALSE (ssRNA)", "RNA": "GGGAGUUCUACAGUCCGACGAUCCAGUCCACAUUAAUUUAACAGGUCUGUUUACAGAGUAUGGUAAUUUCGUUCUUUAGAUUUGCAGAACUUAUAGAGAAAGAAAAUUACAGCCUGCACACCCAAGACAAGGACGAUCCCUCCCAACAGAGGAUUGAGCAUCA"}, "B6": {"name": "chr11:837959:837960:+_ENSG00000177697_ENST00000530726|hu_hu|FALSE|FALSE (ssRNA)", "RNA": "GGGAGUUCUACAGUCCGACGAUCAAUGCCGAUCCCCACAGCCCCAAUGACCCUCAGGUGCUCCUGGAUGAAGGUCUCCAACUUGGUGAUGCAGCCGCCCUCCACCUUGUAGAUGUUGGAGGCAUGGUCUCGCUGCCCACAAAGCAACAGAGGAUUGAGCAUCA"}, "B7": {"name": "123645691_123645811_3519_CDS_ENSG00000051825_ENST00000606320|human|control|control (ssRNA)", "RNA": "GGGAGUUCUACAGUCCGACGAUCUUCUUUUGUAAGUUCAUCAAAAAAUCGUUCUGUUUCAGCUAGGGUCCGAAUUUUUGCUGUAUAUUCAAAAUCAUUCCCCUGUGGAGUGACUGAAACCGGCUUACACUGUUCGUAGCUAACCAACAGAGGAUUGAGCAUCA"}, "B8": {"name": "110463623_110465440_4783_CDS_ENSMUSG00000044791_ENSMUST00000153838|mouse|control|control (ssRNA)", "RNA": "GGGAGUUCUACAGUCCGACGAUCCUCGUCAUUUUUCAGGGCCAUGAAGUAGUAGUGGAUGUUUUUGUUCCGUGCAUAUUCUUUCACCCGAGCUUUAAACUCUUUAUGAUCAAGUACCUCUCCACAGUAUUCCAGGACAAAGGUCAACAGAGGAUUGAGCAUCA"}, "B9": {"name": "chr18:33688888:33688889:-_ENSG00000141424_ENST00000269187|hu_hu|motif|central (ssRNA)", "RNA": "GGGAGUUCUACAGUCCGACGAUCUGCUUGAAUUCAUUAAAUAUAUUUAGAUUUCUGUAUUAUACAAAGUUAAAUGUACAACGGAAUUAGUAUAUGAAAAGUGCUCACUACGUUUUUACGGGAAAUAAUCCUGACAAAAAUGUUCAACAGAGGAUUGAGCAUCA"}, "B10": {"name": "chr13:100192284:100192285:-_ENSMUSG00000052727_ENSMUST00000064762|mus_mus|FALSE|FALSE (ssRNA)", "RNA": "GGGAGUUCUACAGUCCGACGAUCUGGUAAAAUUUCCAUUAGCAAAUGAUUAAAUUUAUAAAACGAGUAUUAGAAAGCUCCUAAAUUUCAUAAGCUAUUGGAAACACUUAAAACAUUCAUAUACACUGGGGAAACCAUUCACUACAACAGAGGAUUGAGCAUCA"}, "B11": {"name": "chr2:125074910:125074911:+_ENSMUSG00000027203_ENSMUST00000082122|mus_hu|motif|central (ssRNA)", "RNA": "GGGAGUUCUACAGUCCGACGAUCUUUUGCAGCCAAGCCUGACCGUGGAGCCACUCUUCCAUAACACCCAGAAGGGAGCGCGGUCUGAAUGUCCGUUUUCACAACAGCUUUCUCCAUAGGUGGUAUUGUGUAAUCAUAGGCACUCAACAGAGGAUUGAGCAUCA"}, "B12": {"name": "chr2:24917620:24917621:+_ENSMUSG00000006476_ENSMUST00000102931|mus_mus|FALSE|FALSE (ssRNA)", "RNA": "GGGAGUUCUACAGUCCGACGAUCAGUAAUGCUGCUUCCCUUCAAAUUGUUUCAGGGGUGUAAAAAAAUUGCACUUAUUUCUAUGAACCCCAUGGAGGGGAUCCCCAAUGCUGCUGCCUCCAGGCGAGGCAUGACAGGUCAAUGCAACAGAGGAUUGAGCAUCA"}, "B13": {"name": "34915422_34918585_112_CDS_ENSG00000159140_ENST00000381679|human|control|control (ssRNA)", "RNA": "GGGAGUUCUACAGUCCGACGAUCAUCACCCGCCUGGUUUCCUUCAAUGGGUGUAUUUGUUUCACCAUUCAGCUGGCCUUCAUUCCUUCCACUGGAAAGCUCCUGUUGAAUUUCCCGGAAUUUACUGACCACGAAAGACCUAAACAACAGAGGAUUGAGCAUCA"}, "B14": {"name": "32767072_32769260_1369_CDS_ENSG00000182973_ENST00000328834|human|control|control (ssRNA)", "RNA": "GGGAGUUCUACAGUCCGACGAUCAGGCCUUCCAAUGUGAAGAAGCUGAAUUCCACAGUUAUACAGCAACUCAUAUCUCUUAUUGGUUAGUAACGUACACAUGGGUCUUCCUGAAAAUUUUUUACCUGGAUCAGUGCUACCUGCCAACAGAGGAUUGAGCAUCA"}, "B15": {"name": "chr10:60127708:60127709:+_ENSG00000072401_ENST00000373910|hu_hu|FALSE|FALSE (ssRNA)", "RNA": "GGGAGUUCUACAGUCCGACGAUCUGCAUGUCUGUUGUAUUUUUCUUUGUCUGAUUUAUAGAUUUGUGCAAUAUCUGGUACUAAGGGGUCAUCUGGAUUAGGAUCACAAAGUAGAGAACAUAUGGACAAUAAAACUUUUGAUACCAACAGAGGAUUGAGCAUCA"}, "B16": {"name": "chr1:60041781:60041782:+_ENSMUSG00000041040_ENSMUST00000036540|mus_hu|mus_mus_mus_hu_False|98_108 (ssRNA)", "RNA": "GGGAGUUCUACAGUCCGACGAUCAAGAGGAGUGAAUCUCAACUUUAGCAGUAGUGGCAAAUUUUCUUUUAUUUUCCUUCACAAAAGAAAAUCUUUAUAACCCAGUCCUAGUCUUGGACAUAGUGAAAGCUAUAAAUUCUGACUCAACAGAGGAUUGAGCAUCA"}, "B17": {"name": "36909483_36909603_678_3pUTR_ENSG00000133104_ENST00000494062|human|control|control (ssRNA)", "RNA": "GGGAGUUCUACAGUCCGACGAUCGUAAAGACAGAGAAGCAGGUGCAGCAACUGCCCCUGCACUUGGAGUUGAGGUGUUUCCAUUUACUUCAGCAUGCUGAGGAGCUGAACUAAAAGACUGAGGCUCUGGUAAUUUUUCACACACAACAGAGGAUUGAGCAUCA"}, "B18": {"name": "17902918_17905106_1138_CDS_ENSMUSG00000003527_ENSMUST00000003621|mouse|control|control (ssRNA)", "RNA": "GGGAGUUCUACAGUCCGACGAUCGUUCUCUGUAACUCUCCGCAACGCUUCCUGCUUCUUCGCCCGGUUUUUGGCAGCCGCUUCAUUGGCCAUCUUCAGGCCCAGACGCUCCCUGCGUCCUGGCUCCAAGAUCUUGAAUGUGGGCAACAGAGGAUUGAGCAUCA"}, "B19": {"name": "chrX:140365796:140365797:-_ENSMUSG00000031285_ENSMUST00000033642|mus_mus|mus_mus_mus_hu_False|38_78 (ssRNA)", "RNA": "GGGAGUUCUACAGUCCGACGAUCCUUCUCAUUACUCAGUGCCUGCAAGGUUCUGGUUCUGUAGAAGCUACAGUGGGCGCUGUGAGUGGGGCUAGGCAGUCCAUUCAUCCGGGAGCCUCGCAUGUUCCUGGAUGUCUUAUCUCUCAACAGAGGAUUGAGCAUCA"}, "B20": {"name": "chr1:150203005:150203006:-_ENSG00000143401_ENST00000314136|hu_mus|motif|central (ssRNA)", "RNA": "GGGAGUUCUACAGUCCGACGAUCAAGAUUUGGACAUUUCUCUGCCAGGACUUCCAAGCCUCCAGAAAUUAUAUUGUCACGGAGUUCCAACUUCCGGAGUUUAUUCAAGCUGGGAAGCCGGGCCAAGGAACUCAACUCCACGUUCAACAGAGGAUUGAGCAUCA"}, "B21": {"name": "150808967_150812034_629_3pUTR_ENSG00000143437_ENST00000358595|human|control|control (ssRNA)", "RNA": "GGGAGUUCUACAGUCCGACGAUCUCCUGAUCAGUGAGGAAAGACGGCUUAUAGGAGCCAUCAGUGGAUGUGUUGCCAGUUCCCCGCAAGGACUUCAUGUGAGAAACUGCCAUGCGUAAGAUGGUUAGCUUGUCUGGUUUUCGACAACAGAGGAUUGAGCAUCA"}, "B22": {"name": "chr5:33459820:33459821:+_ENSG00000113407_ENST00000502553|hu_mus|FALSE|FALSE (ssRNA)", "RNA": "GGGAGUUCUACAGUCCGACGAUCCCAGAGCCGGCUAUUGAAGAUGUUGGGAGUGACGACCUCCUGGAACCCUCUUUUCCUAUAUUCACUCCUGAUAAAUUCCAUUAGUGUAUUAUAAAUGUAGGCUCCUUUGGGCAGGAAAAACAACAGAGGAUUGAGCAUCA"}}, "note": "The list shows a part of the results.", "data": [{"biological_target": "T1, UNK ZnF1-3 (human, UniProt Q9C0B0 31-174)", "T1 sequence": "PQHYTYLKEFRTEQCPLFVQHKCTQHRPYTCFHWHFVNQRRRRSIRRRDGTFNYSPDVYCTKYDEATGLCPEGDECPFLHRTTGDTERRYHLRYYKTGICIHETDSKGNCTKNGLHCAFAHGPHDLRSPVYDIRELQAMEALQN", "experiment": "nsRBNS (natural sequence RNA bind-n-seq); RBNS binding buffer (assumed for nsRBNS): 25 mM Tris pH 7.5, 150 mM KCl, 3 mM MgCl2, 0.01% Triton X-100, 500 ug/ml BSA, 20 U/ml SUPERase-In, 4 C; UNK is unkempt and MSI1 is Musashi-1; names of the RNAs are library labels; protein concentration not given here; high values mean tight binding", "units": {"binding signal": "enrichment R"}, "values": [{"binder": "B1", "binding signal": 2.89}, {"binder": "B2", "binding signal": 0.381}, {"binder": "B3", "binding signal": 0.724}, {"binder": "B4", "binding signal": 1.17}, {"binder": "B5", "binding signal": 1.14}, {"binder": "B6", "binding signal": 0.594}, {"binder": "B7", "binding signal": 0.714}, {"binder": "B8", "binding signal": 0.706}, {"binder": "B9", "binding signal": 0.723}, {"binder": "B10", "binding signal": 1.03}, {"binder": "B11", "binding signal": 1.02}, {"binder": "B12", "binding signal": 0.816}, {"binder": "B13", "binding signal": 0.849}, {"binder": "B14", "binding signal": 1.2}, {"binder": "B15", "binding signal": 1.3}, {"binder": "B16", "binding signal": 0.701}, {"binder": "B17", "binding signal": 0.702}, {"binder": "B18", "binding signal": 0.552}, {"binder": "B19", "binding signal": 0.401}, {"binder": "B20", "binding signal": 0.87}, {"binder": "B21", "binding signal": 0.734}, {"binder": "B22", "binding signal": 1.02}]}]}
